Assay results as given in the supplement of paper PMC3334620.
The full ranking holds about 33,000 sequences; the median of “E-score (-0.5 to 0.5)” is about -0.035, and the highest 2% start at about 0.35. This is one part of the list.

What follows are sequences tested against T1, Pdr3 (UniProt P33200) (assay: PBM E-score (8-mer binding enrichment) (E-score (-0.5 to 0.5)); higher = stronger / more preferred TF binding; most listed sequences are background and not binding sites). Conditions: protein concentration: 200 nM; construct: GST-full length.
T1 sequence: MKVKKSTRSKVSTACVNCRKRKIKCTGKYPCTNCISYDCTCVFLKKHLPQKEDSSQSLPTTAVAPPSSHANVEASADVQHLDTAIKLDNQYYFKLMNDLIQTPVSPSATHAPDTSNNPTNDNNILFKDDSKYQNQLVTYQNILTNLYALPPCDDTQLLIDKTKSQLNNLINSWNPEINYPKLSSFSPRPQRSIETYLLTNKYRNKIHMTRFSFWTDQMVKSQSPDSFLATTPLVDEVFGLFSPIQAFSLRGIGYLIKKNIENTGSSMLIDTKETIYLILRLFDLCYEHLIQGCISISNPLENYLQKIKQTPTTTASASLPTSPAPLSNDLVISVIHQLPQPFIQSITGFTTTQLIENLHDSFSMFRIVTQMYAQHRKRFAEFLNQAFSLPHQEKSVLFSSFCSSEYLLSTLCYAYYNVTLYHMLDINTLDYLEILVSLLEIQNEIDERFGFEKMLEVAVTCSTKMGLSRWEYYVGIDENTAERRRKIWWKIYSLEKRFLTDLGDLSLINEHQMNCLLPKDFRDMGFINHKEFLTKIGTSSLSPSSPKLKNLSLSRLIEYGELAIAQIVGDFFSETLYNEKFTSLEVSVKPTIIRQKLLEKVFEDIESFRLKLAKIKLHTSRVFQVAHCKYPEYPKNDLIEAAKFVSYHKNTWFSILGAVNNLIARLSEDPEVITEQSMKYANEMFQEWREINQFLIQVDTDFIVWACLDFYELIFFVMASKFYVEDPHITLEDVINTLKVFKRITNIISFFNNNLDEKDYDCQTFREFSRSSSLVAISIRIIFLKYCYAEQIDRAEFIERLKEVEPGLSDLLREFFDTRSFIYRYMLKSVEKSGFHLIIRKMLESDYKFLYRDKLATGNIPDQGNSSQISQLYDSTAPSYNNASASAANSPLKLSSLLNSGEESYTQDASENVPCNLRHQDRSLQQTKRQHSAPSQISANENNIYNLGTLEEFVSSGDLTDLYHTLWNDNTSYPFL
In short: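 GST-tagged yeast TFs (full-length or DNA-binding domain) were made by PURExpress in vitro transcription/translation and applied at about 100-200 nM to universal all-10-mer Agilent arrays. The arrays were made double-stranded by primer extension, on fresh or once-stripped slides. Bound protein was detected with fluorescent anti-GST, and scans were normalised with masliner. Each ungapped eight-base word, pooled with its reverse complement, received an E-score (modified Wilcoxon-Mann-Whitney statistic) from the Universal PBM Analysis Suite.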

Going from TACGGACA to AGAATGTC, the “PBM E-score” value falls from 0.225 to -0.188.

First: ATCTTGTA
Second: AGCCTCTG
The “PBM E-score” value of the first is higher: -0.0486 for the first, -0.249 for the second.

First: GATCTAGA
Second: ACATCCAT
The “PBM E-score” value of the first is lower: -0.235 for the first, -0.166 for the second.

First: AACTAAGA
Second: CCCAAAGA
The “PBM E-score” value of the first is higher: -0.0143 for the first, -0.0443 for the second.

Compared with CAGGTGTC, GAAAGCGA is higher in “PBM E-score” value: -0.105 for the first, 0.0803 for the second.

First: AACTGCTA
Second: CCTGTTCC
The “PBM E-score” value of the first is lower: -0.131 for the first, 0.288 for the second.

Compared with CGTCGCAC, ACGGGATG is higher in “PBM E-score” value: 0.192 for the first, 0.283 for the second.

Going from CGGTACGC to GGGCAGTA, the “PBM E-score” value rises from 0.0104 to 0.0818.

Going from GGGTCACA to GGAGCGAA, the “PBM E-score” value rises from -0.288 to -0.0691.

Going from ATGGCATC to AGATTTCA, the “PBM E-score” value falls from -0.0396 to -0.12.

Going from TATTAAGA to ATCTATTC, the “PBM E-score” value rises from -0.227 to 0.0306.

Going from GTATTTGA to ACCCAGAT, the “PBM E-score” value rises from -0.294 to -0.133.

Going from ATAAGTCC to GACGTGAC, the “PBM E-score” value falls from 0.111 to -0.182.

Compared with CGGACGTC, CGCCATAA is lower in “PBM E-score” value: 0.147 for the first, -0.037 for the second.

First: GAGAACAC
Second: GAACCACA
The “PBM E-score” value of the first is lower: -0.119 for the first, 0.109 for the second.

Going from TCGAAGCA to AACACCTC, the “PBM E-score” value falls from -0.288 to -0.299.

Going from CGCATCGA to TATCACCA, the “PBM E-score” value falls from 0.0646 to -0.0892.

Compared with AGCCAGCT, GGTACAAA is lower in “PBM E-score” value: -0.164 for the first, -0.166 for the second.

Going from CTCGATGA to AATTGCCA, the “PBM E-score” value rises from 0.00119 to 0.0322.

First: CCATAGCG
Second: ATTGTCCG
The “PBM E-score” value of the first is lower: -0.0119 for the first, 0.339 for the second.

Compared with CATGAGCC, AATCACTA is higher in “PBM E-score” value: -0.215 for the first, 0.0272 for the second.

Going from ATTGGGGA to CGCAGTAG, the “PBM E-score” value rises from -0.108 to -0.0811.

Compared with AGCCTTCA, CTAGTGAC is higher in “PBM E-score” value: -0.152 for the first, -0.102 for the second.

Going from TGCAGCCA to CTCGCCCA, the “PBM E-score” value falls from 0.0812 to -0.0292.

Going from TAAAGCAA to CATTGCAA, the “PBM E-score” value falls from -0.0439 to -0.11.

Going from AATGCCGT to AGGACGAA, the “PBM E-score” value falls from 0.36 to 0.163.

Compared with CAGACAGG, GGCGATCA is higher in “PBM E-score” value: -0.046 for the first, 0.0313 for the second.

Going from CCTATACC to AGATTGGA, the “PBM E-score” value rises from -0.114 to 0.0347.

First: CGCCAAAC
Second: GAACCTAA
The “PBM E-score” value of the first is lower: -0.00467 for the first, 0.0758 for the second.

First: GGAGGGAA
Second: CCGATATC
The “PBM E-score” value of the first is lower: 0.0993 for the first, 0.254 for the second.

Going from AAGGGCTG to GAAGATGC, the “PBM E-score” value rises from -0.176 to -0.0857.

Compared with ACGCGGTG, AATACAAA is higher in “PBM E-score” value: 0.0206 for the first, 0.171 for the second.

Compared with TACAGTGA, AGCAAGGC is higher in “PBM E-score” value: -0.113 for the first, -0.0584 for the second.

First: CCAATCGC
Second: TCCAGCCA
The “PBM E-score” value of the first is higher: 0.012 for the first, -0.241 for the second.

Compared with ACCCTTGG, TGCAGGCA is lower in “PBM E-score” value: -0.141 for the first, -0.203 for the second.

First: AGATGCTA
Second: ACACGTGG
The “PBM E-score” value of the first is lower: -0.165 for the first, 0.0406 for the second.

Compared with AAATGCAT, ATGACAGG is lower in “PBM E-score” value: 0.112 for the first, -0.206 for the second.

First: CTGTCGGA
Second: GGCATAAC
The “PBM E-score” value of the first is higher: 0.261 for the first, -0.133 for the second.

Going from AACATGGG to ACAAGTCA, the “PBM E-score” value falls from 0.132 to -0.14.

First: CGAAACAC
Second: GACTTCCC
The “PBM E-score” value of the first is higher: 0.127 for the first, 0.0859 for the second.

Compared with GCTCGACA, CAGGCCTC is higher in “PBM E-score” value: -0.263 for the first, -0.218 for the second.

Compared with CACGATTC, AACAAGGC is lower in “PBM E-score” value: 0.103 for the first, -0.245 for the second.

First: CGCATAAC
Second: ATTACGTC
The “PBM E-score” value of the first is higher: 0.0802 for the first, -0.161 for the second.
